The labels stand for the following.
B1: CPEB3 Ribozyme (parent)
chain: UAACAGGGGGCCACAGCAGAAGCGUUCACGUCGCAGCCCCUGUCAGAUUCUGGUGAAUCUGCGAAUUCUGCUGUAUAUCUC

The source gives no read counts; variants with many changes may rest on few reads.

In this data set the parent is B1. In words: self-cleavage, relative activity (ratio to wild type); higher = more cleavage; in vitro, sequencing. The method, boiled down: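 CPEB3 self-cleaving ribozyme mutant libraries were made by rounds of error-prone PCR, barcoded, and transcribed in vitro with T7 RNA polymerase for 5 hours at 37°C. Cleavage occurred during transcription and a 15 min DNase I step before EDTA stop. RNAs were reverse transcribed with template switching and Illumina-sequenced, with DNA sequencing mapping barcodes to variants. Relative activity is the variant's cleaved/total read fraction divided by wild type's (minimum 5 reads), averaged across three batches.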
On to UAACAGGGGGCCACAGCAGAAGCGUUCAUGUCGCAGCCCCUGUCAGAUUCUGGUGGACCUGCGAAUUCUGCUGUAUAUCUC [C29U A56G U58C], for which the self-cleavage amounted to 0.16.
As to UAACAGGGGGCCACAGCAGAAGCGUUCAUGUCGCAGCCCCUGUCAGGUUCUGGUGAACCUGCGAAUUCUGCUGUAUAUCAC [C29U A47G U58C U80A], the self-cleavage worked out at 0.56.
Then UAACAGGGGGCCACAGCAGAAGCGUUCAUGUCGCAGCCCCUGUCAGAUUCUAGUGAAUCUGCGAAUUCUGCUGUUGAUCUC [C29U G52A A75U U76G], with 0.41; and UAACAGGGGGCCACAGCAGAAGCGUUCAUGUCGCAGCGCCUGUCUGAUUCUGGUGAAUCUGCGAAUCCUGCUGUAUAUCUC [C29U C38G A45U U67C], with 0.07; and UAACAGGGGGCCACAGCAGAAGCGUUCAUGAUGCAACCCCUGUUAGAUUCUGGCGAAUCUGCGAAUUCUGCUGUAUAUCUC [C29U U31A C32U G36A C44U U54C], with 0.06.
For the variant UAACAGGGGGCCACAGCAGAAGCGUUCAUGCCGCAGCCCCCGUCAGAUUCUGGUGAAUCUGCGAAUUCCGCUGUAUAUCUC [C29U U31C U41C U69C], the self-cleavage was 0.12.
Take UAACAGGGGGCCACAGCAGAAGCGUUCAGGUCGCAGCCCCCGUCAGAUUCUGGUGAUUCUGCGAAUUCUGCUGUAUAUCUC [C29G U41C A57U]: the self-cleavage worked out at 0.21.
On to UAACAGGGGGCCACAGCAGAAGCGUUCAAGUCGCAGCCCCUGUCAGAUUCCGGCGAAUCUGCGAAUUCUGCUGUUUAUCUC [C29A U51C U54C A75U], for which the self-cleavage was 0.41.
For the variant UAACAGGGGGCCACAGCAGAAGCGUUCAGGUCGCAGCCCCUGUCGGAUUCUGGUGAAUCCGCGAAUUCUGCUGUAUAUCUC [C29G A45G U60C], the self-cleavage was found to be 0.25.
For the variant UAACAGGGGGCCACAGCAGAAGCGUUCAUGUCGCAGCCCCUGCCUGAUUCUGAUGAAUCAGCGAAUUCUGCUGUAUAUCUC [C29U U43C A45U G53A U60A], the self-cleavage stood at 0.24.
Turning to UAACAGGGGGCCACAGCAGAAGCGUUCAUGUCGCAGCCCCUGCCAGAUUCUGGUGAAUCCGCGAAUUCCGCUGUAUAUCUC [C29U U43C U60C U69C], the self-cleavage was 0.44.
Consider UAACAGGGGGCCACAGCAGAAGCGUUCAGGUCGCAGCCCCAGUCAGAUUCUGGUGAAUCCGCGAAUUCUGCUGUGUAUCUC [C29G U41A U60C A75G], for which the self-cleavage stood at 0.07.
For the variant UAACAGGGGGCCACAGCAGAAGCGUUCAUGUCGCGGCCCCUGUCAGAUUCCGGUGAAUCUGCGAAAUCUGCUGUAUAUCUC [C29U A35G U51C U66A], the self-cleavage turned out to be 0.47.
In the case of UAACAGGGGGCCACAGCAGAAGCGUUCAUGUCGCAGCCCCUGUCGGAUUCUGGUGAAUCAGCGAAUUCUGCUGUAUAUCUC [C29U A45G U60A], the self-cleavage came out at 0.22.
Turning to UAACAGGGGGCCACAGCAGAAGCGUUCAUGUUGCGUCCCCUGUCAGAUUCUGGUGAAUCUGCGAAUUCUGCUGCAUAUCUC [C29U C32U A35G G36U U74C], the self-cleavage came to 0.14.
Then UAACAGGGGGCCACAGCAGAAGCGUUCAGGCCGCAGCCCCUGACAGAUUCUGGUGAAUCUGCGAAUUCUGCUGUAUAUCUC [C29G U31C U43A], with 0.17; and UAACAGGGGGCCACAGCAGAAGCGUUCAGGUCGCAGCCCCUGUCGGAUUCUGGUGGAUCUGCGAAUUCUGCUGUAUACCUC [C29G A45G A56G U78C], with 0.03.
Then UAACAGGGGGCCACAGCAGAAGCGUUCAUGUCGCAGCCGCUGUCAGAUUCUGGUGAAUCUGCGAUUUCUGCAGUAUAUCUC [C29U C39G A65U U72A], with 0.12; and UAACAGGGGGCCACAGCAGAAGCGUUCAUGUCGCAGCCCCUGUCAGAUUCUGGUGAAUCUGCGGAUUCUGCUGUGUAUCCC [C29U A64G A75G U80C], with 0.09.
Consider UAACAGGGGGCCACAGCAGAAGCGUUCAUGUCGCAGCCCCUGUCAGAUUCUGGUGGACCUGCGAAUUCAGCUGUAUAUCUC [C29U A56G U58C U69A], for which the self-cleavage amounted to 0.08.
For UAACAGGGGGCCACAGCAGAAGCGUUCAUGUCGCAGCCCCUGACGGAUUCUGGAGAAUCUGCGAAUUCUGCCGUAUAUCUC [C29U U43A A45G U54A U72C], the self-cleavage is 0.43.
For the variant UAACAGGGGGCCACAGCAGAAGCGUUCAGGUCGCAGCCCCUGUCAGAUUCUGGUGAAUCUGCGAAUUCUGCAGUAUACCUC [C29G U72A U78C], the self-cleavage amounted to 0.08.
In the case of UAACAGGGGGCCACAGCAGAAGCGUUCAGGUCGCAGCCACUGUCAGAUUCUGGCGAAUCUGCGAAUUCUGCCGUAUAUCUC [C29G C39A U54C U72C], the self-cleavage amounted to 0.09.
On to UAACAGGGGGCCACAGCAGAAGCGUUCAUGCCGCAGCCCCUGACAGAUUCUGGUGAAUCAGCGAAUUCUGCUGUAUACCUC [C29U U31C U43A U60A U78C], for which the self-cleavage amounted to 0.12.
Then UAACAGGGGGCCACAGCAGAAGCGUUCAUGUCGCAGCCCCUGUCAGAUUCUGGUGAAUCUGCGAAUUCUGCAGUAAAUCUC [C29U U72A U76A], with 0.2.
Then UAACAGGGGGCCACAGCAGAAGCGUUCAUGUCGCAGCCCCUCUCAGGUUCCGGUGAUUCUGCGAAUUCUGCUGUUUAUCUC [C29U G42C A47G U51C A57U A75U], with 0.08; and UAACAGGGGGCCACAGCAGAAGCGUUCAUGUCGCAGCCCCUGUCUGAUUCUGGUGAACCUGCGAAUUCUGCUGUAUAUCUC [C29U A45U U58C], with 0.34; and UAACAGGGGGCCACAGCAGAAGCGUUCAUGUCGCAGCCCCUGCCAGGUUCUGGUGAACCUGCGAAUUCUGCUGUAUAUCUC [C29U U43C A47G U58C], with 0.27.
Turning to UAACAGGGGGCCACAGCAGAAGCGUUCAAGUCGCAGCCCCUGUCAGAUUCCGGUGUUUCUGCGAAUUCUGCUGUAUAUCUC [C29A U51C A56U A57U], the self-cleavage was found to be 0.09.
As for UAACAGGGGGCCACAGCAGAAGCGUUCAGGUCGCAGCCCCUGUCAGAUUCAGGUGAAUCUACGAAUUCUGCCGUAUAUCUC [C29G U51A G61A U72C], the self-cleavage came to 0.08.
Then UAACAGGGGGCCACAGCAGAAGCGUUCAUGUCGCAGCCCCCGUCAGAUUCUGGUGUAUCCGCGAAUUCUGCUGUAUAUCUC [C29U U41C A56U U60C], with 0.11; and UAACAGGGGGCCACAGCAGAAGCGUUCAUGUCGCAGCCCCCGACAGAUUCUGGUGAAUCUGCGAAUUCUGCUGUAUAUCUC [C29U U41C U43A], with 0.29.
As to UAACAGGGGGCCACAGCAGAAGCGUUCAUGUCGCAGCCCCUGUCAGGUUCUGGUGAAUCUGCCAAUUCUGCUGUAUAUCUC [C29U A47G G63C], the self-cleavage amounted to 0.35.
Turning to UAACAGGGGGCCACAGCAGAAGCGUUCAUGUCGCAGCCCCUGUCAGACUCUGGUGAAUCUGCGAAUUCCGCUGUAAAUCUC [C29U U48C U69C U76A], the self-cleavage was 0.15.

Values taken from the RNAGym collection of RNA variant scans (doi:10.1093/nar/gkz1192).
